{"source": "PubChem BioAssay AID686978", "about": "(National Center for Advancing Translational Sciences (NCATS), 2013)", "note": "The campaign covered roughly 420,000 compounds. About 64,000 (15%) were called active. The inconclusive results got no clear call from the source; some entries with a clear call stand among them for comparison. Calls come from the whole dose curve; as a rule, active = well fitted inhibition curve with a large enough effect; inconclusive = small, poorly fitted or top-dose-only effect; inactive = flat fitted curve, though single readings scatter. No potency is given beside an inconclusive call; the fits are too rough. % is set by controls: 0 for no effect and ±100 for the full control effect; potency is the fitted concentration of half-maximal effect; tags give direction and shape of the fitted curve."}
{"assay": "qHTS for Inhibitors of human tyrosyl-DNA phosphodiesterase 1 (TDP1): qHTS in cells in absence of CPT; note: nearly all actives have a fitted effect of over 55% in size", "conditions": "DT40 Tdp1-/- hTDP1 cells, no CPT, ATP luminescence, 48 h; activity change, negative = growth inhibition: at 46.2 µM (top of the series) unless noted", "outline": "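Readout: luminescence from CellTiter-Glo after 30 min in the dark at RT. Cells: DT40 Tdp1-/- with stable hTDP1, 400/well. Exposure: compounds alone, ≥48 hr, 37 °C.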"}
{"smiles": "COCCn1c(-c2ccc(Cl)cc2)cnc1SCC(=O)NCc1cccs1", "Potency": "inconclusive [inhibitor, single point]"}
{"smiles": "O=S(=O)(Cc1ccccc1)Nc1ccccc1", "Potency": "inactive"}
{"smiles": "CC(C)C(=O)Nc1ccc(-c2ccc3nncn3n2)cc1", "Potency": "inconclusive [inhibitor, single point]"}
{"smiles": "Cc1ccc(C)c(N2CCN(C(=O)COc3cc(=O)n(C)c4ccccc34)CC2)c1", "Potency": "inconclusive [inhibitor, single point]"}
{"smiles": "Cc1ccc(N2CC(NC(=O)/C=C\\c3ccc4c(c3)OCO4)CC2=O)cc1", "note": "(configuration not stated)", "Potency": "inconclusive [inhibitor, single point]"}
{"smiles": "COc1ccc(CNC(=O)Cn2ccc3cc(S(=O)(=O)N4CCCCCC4)ccc32)c(OC)c1", "Potency": "inconclusive [inhibitor, single point]"}
{"smiles": "CN(C(=O)c1cccc(NC(=O)Cc2ccc(NC(=O)C3CCN(C(=O)C4CCCCC4)CC3)cc2)c1)C1CCC1", "Potency": "inconclusive [inhibitor, single point]"}
{"smiles": "CCc1nc(SCc2ccc(C(=O)OC)o2)c2c(=O)n(C)c(=O)n(C)c2n1", "Potency": "active: 9.2 µM"}
{"smiles": "CC(C(=O)N1CCCCCC1)c1ccc([N+](=O)[O-])cc1", "note": "(configuration not stated)", "Potency": "inconclusive [inhibitor, single point]"}
{"smiles": "O=C(C1CC1)N1CCc2cc(Br)cc(S(=O)(=O)N3CCN(c4ccccc4F)CC3)c21", "Potency": "inconclusive [inhibitor, single point]"}
{"smiles": "Cc1ccc(NC(=O)c2cc(-c3ccccc3)nn2-c2ccccc2)cc1", "Potency": "active: 20.6 µM"}
{"smiles": "CCCCNC(=S)Nc1cccc(C(C)=O)c1", "Potency": "inconclusive [inhibitor, partial curve]"}
{"smiles": "O=C1[C@H]2[C@@H](c3ccc(C(F)(F)F)cc3)N[C@]3(CCCN(Cc4ccc(Br)cc4)C3=O)[C@H]2C(=O)N1Cc1ccccc1", "Potency": "active: 23.1 µM"}
{"smiles": "COC(=O)c1c(SCC(=O)Nc2ccccc2OC)[nH]c2ccccc2c1=O", "Potency": "inconclusive [inhibitor, single point]"}
{"smiles": "CC1CCCN(c2nc(N(C)c3ccccc3)nc(N)c2[N+](=O)[O-])C1", "note": "(configuration not stated)", "Potency": "inconclusive [inhibitor, single point]"}
{"smiles": "COc1ccc(Oc2nc3c(c(=O)n(Cc4ccccc4Cl)c(=O)n3C)n2C)cc1", "Potency": "active: 6.51 µM"}
{"smiles": "O=c1c2ccccc2nc(/C=C/c2ccc(Br)cc2)n1CCO", "Potency": "active: 23.1 µM"}
{"smiles": "CC(=O)c1ccc(S(=O)(=O)Nc2ccc(C(=O)NCCCn3ccnc3)cc2)cc1", "Potency": "inactive"}
{"smiles": "COc1ccccc1-c1nnc(SCc2nc3ccccc3s2)n1C", "Potency": "inactive"}
{"smiles": "Cc1ccc(C)c(N(C(=O)c2nsc(Cl)c2Cl)C(C(=O)NC2CCCC2)c2ccc(O)cc2)c1", "note": "(configuration not stated)", "Potency": "inconclusive [inhibitor, single point]"}
{"smiles": "Cc1ccc(-c2nnc(Nc3ccc(O)cc3)c3ccccc23)cc1S(=O)(=O)NCC1CCCO1", "note": "(configuration not stated)", "Potency": "active: 23.1 µM"}
{"smiles": "Cc1cc(C(=O)O)cc(S(=O)(=O)Nc2ccccc2C(=O)NC(C)c2ccccc2)c1C", "note": "(configuration not stated)", "Potency": "inactive"}
{"smiles": "CNS(=O)(=O)c1cccc(C(=O)OCC(=O)C23CC4CC(CC(C4)C2)C3)c1", "Potency": "inconclusive [inhibitor, single point]"}
{"smiles": "COc1ccc(N/C=C/C(=O)C(C)(C)C)cc1", "Potency": "inconclusive [inhibitor, partial curve, poor fit]"}
{"smiles": "O=C(CSc1nc(C2CC2)nc2ccccc12)Nc1ccc2c(c1)OCCO2", "Potency": "active: 20.6 µM"}
{"smiles": "CCC(=O)NC(c1cccc([N+](=O)[O-])c1)c1c(OC(C)=O)ccc2ccccc12", "note": "(configuration not stated)", "Potency": "inconclusive [inhibitor, partial curve, poor fit]"}
{"smiles": "Cc1cc(C(=O)CN2C(=O)C(=O)N(Cc3ccccc3)C2=O)c(C)n1-c1ccc2c(c1)OCCO2", "Potency": "active: 20.6 µM"}
{"smiles": "COC(=O)C1=C(C)Nc2ncnn2C1c1ccc(OCc2ccccc2)cc1", "note": "(configuration not stated)", "Potency": "inconclusive [inhibitor, single point]"}
{"smiles": "N#Cc1c(C(F)(F)F)cc(-c2ccccc2)nc1SCc1nc(N)nc(N2CCOCC2)n1", "Potency": "inconclusive [inhibitor, partial curve]"}
{"smiles": "Cc1nc(SCC(=O)Nc2ccc(F)cc2)c(C#N)c(C)c1CC(=O)c1ccc(Br)cc1", "Potency": "inconclusive [inhibitor, single point]"}
{"smiles": "Cc1ccccc1CC(=O)N1CCCc2ccccc21", "Potency": "inconclusive [inhibitor, single point]"}
{"smiles": "Cc1c(NC(=S)N/C(=N/S(=O)(=O)c2ccccc2)c2ccccc2)c(=O)n(-c2ccccc2)n1C", "Potency": "inactive"}
{"smiles": "Cc1ccccc1-n1nc2c(c1NC(=O)c1cc3ccccc3oc1=O)CS(=O)(=O)C2", "Potency": "inconclusive [inhibitor, partial curve]"}
{"smiles": "CCCCOC(=O)Nc1ccc(S(=O)(=O)Nc2ccc([N+](=O)[O-])cc2)cc1", "Potency": "inactive"}
{"smiles": "CN1C(=O)/C(=C\\c2ccncc2)SC1=Nc1ccccc1", "Potency": "inconclusive [inhibitor, single point]"}
{"smiles": "O=C(/C=C/c1ccco1)Nc1ccc(Cl)c(-c2nc3cc(Cl)ccc3o2)c1", "Potency": "active: 25.9 µM"}
{"smiles": "O=C(Nc1ccc(Cl)cc1)c1ccc2sc([C@@H]3O[C@H](CO)[C@@H](O)[C@H]3O)nc2c1", "Potency": "inconclusive [inhibitor, single point]"}
{"smiles": "COc1cc(/C=C/C(=O)N2CCCN(C(=O)/C=C/c3cc(OC)c(OC)c(OC)c3)CC2)cc(OC)c1OC", "Potency": "inconclusive [inhibitor, single point]"}
{"smiles": "CC1CCc2nc(-c3cc4ccc(O)cc4oc3=O)sc2C1", "note": "(configuration not stated)", "Potency": "inconclusive [inhibitor, single point]"}
{"smiles": "C=C(C)C1CC=C(C)/C(=N\\NC(=O)CCc2ccccc2)C1", "note": "(configuration not stated)", "activity change, negative = growth inhibition": "inconclusive: -31.5% [inhibitor]"}
{"smiles": "COc1ccc(/C=C2/SC(=O)N(CCNC(=O)C3CCCN3C(=O)c3cccs3)C2=O)cc1", "note": "(configuration not stated)", "Potency": "inconclusive [inhibitor, single point]"}
{"smiles": "CCOC(=O)c1ccc(N2C(=O)C3ON(c4ccccc4)C(c4ccco4)C3C2=O)cc1", "note": "(configuration not stated)", "Potency": "inactive"}
